Screen size: about 310,000 compounds; about 14,000 (4.5%) showed an effect of 50% or more. The effect is printed as a negative number. The list shows a part of the results.
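Note: peak tail current of the secondary pulse compared with the same well before compound.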

In this assay the target is human ether-à-go-go-related gene (hERG) potassium channel (human, UniProt Q12809). Nature of the assay: primary screen, population patch clamp on CHO cells stably expressing hERG.
human ether-à-go-go-related gene (hERG) potassium channel, sequence (Q12809 whole entry, looked up): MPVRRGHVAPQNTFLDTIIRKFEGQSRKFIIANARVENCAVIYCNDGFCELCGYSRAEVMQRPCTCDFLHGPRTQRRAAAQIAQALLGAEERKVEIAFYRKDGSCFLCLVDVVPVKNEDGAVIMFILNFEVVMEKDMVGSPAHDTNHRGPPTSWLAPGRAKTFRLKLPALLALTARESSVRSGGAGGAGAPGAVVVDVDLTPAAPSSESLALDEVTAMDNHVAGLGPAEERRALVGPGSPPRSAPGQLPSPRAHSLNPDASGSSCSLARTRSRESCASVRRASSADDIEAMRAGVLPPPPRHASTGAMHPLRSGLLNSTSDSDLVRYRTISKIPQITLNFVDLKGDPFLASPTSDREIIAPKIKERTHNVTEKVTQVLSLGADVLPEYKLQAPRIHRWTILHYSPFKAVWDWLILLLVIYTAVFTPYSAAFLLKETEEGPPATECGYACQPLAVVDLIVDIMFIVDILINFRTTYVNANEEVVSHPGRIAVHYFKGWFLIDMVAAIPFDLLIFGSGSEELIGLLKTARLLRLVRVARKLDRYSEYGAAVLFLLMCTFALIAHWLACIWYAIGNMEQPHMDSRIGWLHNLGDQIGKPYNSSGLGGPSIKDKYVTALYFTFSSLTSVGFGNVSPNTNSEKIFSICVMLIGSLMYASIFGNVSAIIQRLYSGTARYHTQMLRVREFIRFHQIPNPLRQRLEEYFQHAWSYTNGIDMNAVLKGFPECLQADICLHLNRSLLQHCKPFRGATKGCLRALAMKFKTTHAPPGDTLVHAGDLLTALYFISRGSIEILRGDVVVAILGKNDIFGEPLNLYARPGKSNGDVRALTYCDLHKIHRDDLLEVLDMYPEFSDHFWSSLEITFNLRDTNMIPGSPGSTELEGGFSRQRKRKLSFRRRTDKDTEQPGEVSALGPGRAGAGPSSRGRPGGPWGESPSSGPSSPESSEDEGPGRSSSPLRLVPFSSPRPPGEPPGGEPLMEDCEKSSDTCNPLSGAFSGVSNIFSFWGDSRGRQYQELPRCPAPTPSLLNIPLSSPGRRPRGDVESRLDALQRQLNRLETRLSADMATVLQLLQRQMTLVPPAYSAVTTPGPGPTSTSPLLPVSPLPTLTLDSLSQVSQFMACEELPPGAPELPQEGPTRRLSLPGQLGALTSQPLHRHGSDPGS
With `O=C(COc1ccc([N+](=O)[O-])cc1)N(Cc1ccccc1)Cc1ccccc1`, the “hERG current change (%, negative = inhibition) at 10uM” value was -41.5%. As for `Cc1nc(C)c(C(=O)O)c(-c2cccs2)c1C(=O)O`, the “hERG current change (%, negative = inhibition) at 10uM” value is recorded as -1.36%.

For `Cc1ccc(C)n1-c1ccc(C(=O)NCc2ccncc2)cc1`, the “hERG current change (%, negative = inhibition) at 10uM” value is given as -4.4%. As for `CC/C(=C\c1oc2cc3ccccc3cc2[n+]1CC)Nc1ccccc1.[I-]`, the “hERG current change (%, negative = inhibition) at 10uM” value is listed as -78.1%. In the case of `CN1CCN2c3ncccc3Cc3ccccc3[C@@H]2C1`, the “hERG current change (%, negative = inhibition) at 10uM” value is given as -0.0533%. As for `Cc1occc1-c1nnc(SCC(=O)c2ccccc2)n1CC1CCCO1` (stereo not shown), the “hERG current change (%, negative = inhibition) at 10uM” value is -8.58%. In the case of `CCOc1ccccc1NC(=O)CNC(=O)c1nn(-c2ccc(OC)c(OC)c2)c(=O)c2ccccc12`, the “hERG current change (%, negative = inhibition) at 10uM” value is reported as -2.11%. With `CCOC(=O)Nc1nc(-c2ccc(F)cc2F)cs1`, the “hERG current change (%, negative = inhibition) at 10uM” value was 5.99%. Regarding `COc1ccc(CCN2CC(C(=O)NCCc3ccccn3)CCC2=O)cc1` (stereo not shown), the “hERG current change (%, negative = inhibition) at 10uM” value is recorded as -1.14%. `COc1ccc(C)cc1NC(=O)C1CCCN(S(=O)(=O)c2cccnc2)C1` (stereo not shown): the “hERG current change (%, negative = inhibition) at 10uM” value is 4.23%.

As for `CCCNS(=O)(=O)c1ccc(OCC(=O)Nc2ccc3c(c2)OCCO3)c(C)c1`, the “hERG current change (%, negative = inhibition) at 10uM” value is -7.32%. Take `Cc1ccc(C(C)C)cc1OCCn1cncn1`: the “hERG current change (%, negative = inhibition) at 10uM” value worked out at 3.69%. The figure for `CCCN(CCC)S(=O)(=O)c1cc(Br)cc2c1N(C(=O)CC)CC2` is -2.75%. Consider `O=C1CCCc2oc3c(c21)CCCC3`, for which the “hERG current change (%, negative = inhibition) at 10uM” value is on record as -3.83%. With `O=C(COC(=O)C1=COCCO1)NCCCc1ccccc1`, the “hERG current change (%, negative = inhibition) at 10uM” value was found to be 10.4%.

In the case of `CC(=O)c1cccc(NC(=O)CN(c2ccccc2)S(C)(=O)=O)c1`, the “hERG current change (%, negative = inhibition) at 10uM” value is given as -19.8%. The figure for `CCc1cccc(CC)c1NC(=O)COC(=O)c1ccc2c(c1)S(=O)(=O)c1ccccc1C2=O` is 1.76%. Regarding `COc1ccc(C(=O)N2CCOC2CNC(=O)C(=O)NCc2ccco2)cc1` (stereo not shown), the “hERG current change (%, negative = inhibition) at 10uM” value is -1.34%.

Turning to `Brc1ccc(-n2c(SCc3nc4ccccc4[nH]3)nnc2-c2ccncc2)cc1`, the “hERG current change (%, negative = inhibition) at 10uM” value is -13.6%. For the molecule `Cc1ccc(-c2nc3ccccc3c(=O)n2-c2nccs2)cc1`, the “hERG current change (%, negative = inhibition) at 10uM” value was found to be 4.82%.

As to `Cc1nonc1CN(C)C(=O)CC1C(=O)NCCN1Cc1ccccc1C(F)(F)F` (stereo not shown), the “hERG current change (%, negative = inhibition) at 10uM” value turned out to be 8.07%. In the case of `Cc1ccc(NC(=O)CCNC(=O)c2ccc(Br)cc2)cc1S(=O)(=O)N1CCCCCC1`, the “hERG current change (%, negative = inhibition) at 10uM” value is -25%. On to `CC(=O)Nc1cccc(OCCCNC(=O)c2ccc(F)cc2)c1`, for which the “hERG current change (%, negative = inhibition) at 10uM” value is listed as -3.33%. For the molecule `COc1ccc(C(O)(C(C)C)C(CN2CCOCC2)c2ccc(Cl)cc2)cc1.Cl` (stereo not shown), the “hERG current change (%, negative = inhibition) at 10uM” value is reported as 4.99%.

Turning to `Cc1ccc(NC(=O)CN(C)c2ccc(S(=O)(=O)N3CCCC3)cn2)cc1`, the “hERG current change (%, negative = inhibition) at 10uM” value is -2.1%. The figure for `Cc1ccc(-c2cn3c(=O)cc(C)[nH]c3n2)cc1` is 7.89%; for `CCOC(=O)c1cnc2cc(-c3ccc(Cl)cc3)nn2c1N` it is 8.48%. With `Cc1nn(CC(=O)NCCCN2CCC(N3CCCCC3)CC2)c(=O)c2cc(-c3ccccc3)nn12`, the “hERG current change (%, negative = inhibition) at 10uM” value is on record as -23.3%. As to `COc1ccc(CNC(=O)C(=O)NCCC2CCCCN2S(=O)(=O)c2ccccc2)cc1` (stereo not shown), the “hERG current change (%, negative = inhibition) at 10uM” value is recorded as -15.2%. As to `O=C(NC1CC1)C1=C[C@H](c2coc3ccccc3c2=O)C[C@H](OCc2ccc(CO)cc2)O1`, the “hERG current change (%, negative = inhibition) at 10uM” value was -20.7%. As for `Cc1nc2ccc(-c3ccccc3)cc2o1`, the “hERG current change (%, negative = inhibition) at 10uM” value was -17.1%. With `Cc1ccc(-n2cnc3ncnc(-c4ccccc4)c32)cc1`, the “hERG current change (%, negative = inhibition) at 10uM” value is reported as -6.83%. `COc1cc(/C=N/N(C)S(=O)(=O)c2ccc(C)cc2)cc([N+](=O)[O-])c1O`: the “hERG current change (%, negative = inhibition) at 10uM” value was determined as 1.54%. On to `Cc1ccc(S(=O)(=O)Cc2ccc(C(=O)NCCCN3CCN(C)CC3)o2)cc1`, for which the “hERG current change (%, negative = inhibition) at 10uM” value was 15.6%.

Turning to `COc1cc(CCCN2CCNC[C@@H]2Cc2ccc(O)cc2)cc(OC)c1OC`, the “hERG current change (%, negative = inhibition) at 10uM” value was 2.42%. Take `COc1ccc(NC(=O)CN2CCN(c3nc(-c4ccc(F)cc4)cs3)CC2)c(OC)c1`: the “hERG current change (%, negative = inhibition) at 10uM” value stood at 20.7%. The figure for `O=C(NC1CCCCCC1)C1CCCN(S(=O)(=O)c2cccs2)C1` (stereo not shown) is 11.1%; for `COc1ccc(Nc2nc(N)nc(COc3ccc(OC)cc3)n2)cc1` it is 4.75%. `O=C(CCC(=O)OCC(=O)c1ccc(Br)cc1)Nc1cccc2cccnc12`: the “hERG current change (%, negative = inhibition) at 10uM” value is recorded as -1.66%. Regarding `COc1ccc(S(=O)(=O)N(CC(=O)Nc2ccccc2C(=O)N2CCOCC2)c2ccc(F)cc2)cc1`, the “hERG current change (%, negative = inhibition) at 10uM” value is -57%.

As to `O=C(Nc1c2n(c(=S)n(-c3ccccc3)c1=O)CCCCC2)c1ccccc1`, the “hERG current change (%, negative = inhibition) at 10uM” value is reported as -20.9%. The figure for `CCn1c(SCC(=O)NC2CCCCC2)nnc1-c1ccco1` is -6.51%; for `O=C(COC(=O)c1ccc([N+](=O)[O-])s1)NCCc1ccccc1` it is -13.5%; for `COc1cccc(N2CCN(CC(=O)c3c[nH]c4ccc(OC)cc34)CC2C)c1` (stereo not shown) it is -29.5%. For the molecule `O=C(NC(=O)N1CCSCC1)c1c(Cl)cccc1Cl`, the “hERG current change (%, negative = inhibition) at 10uM” value came to 14.1%. As to `CN(C)C(=O)c1c([N+](=O)[O-])ncn1C`, the “hERG current change (%, negative = inhibition) at 10uM” value turned out to be 10.9%. The figure for `COc1ccc(NC(=O)CSc2nccn2Cc2ccc(F)cc2)cc1` is -25.1%. The figure for `CCOC(=O)C(NC(=O)Nc1ccccc1)(OCC)C(F)(F)F` (stereo not shown) is 1.14%.

On to `CC(=O)/C(C#N)=C1\NC(=O)C(Cc2ccccc2C)S1` (stereo not shown), for which the “hERG current change (%, negative = inhibition) at 10uM” value came to 13.1%. The figure for `CCS(=O)(=O)c1cc([N+](=O)[O-])c(Sc2ccccc2NC(C)=O)s1` is 8.29%; for `Cl.O=C(c1ccco1)N1CCN(C(c2ccccc2F)c2nnnn2CC2CCCO2)CC1` (stereo not shown) it is -17.2%. On to `CCCN1CNC(=S)N(CCc2ccccc2)C1`, for which the “hERG current change (%, negative = inhibition) at 10uM” value was 8.83%. `O=S(=O)(c1ccccc1)c1nc(Nc2ccccc2N2CCOCC2)sc1Cl`: the “hERG current change (%, negative = inhibition) at 10uM” value is reported as -30.6%. Turning to `COc1ccc(C(C(=O)NCc2ccccc2)N(Cc2ccco2)C(=O)c2snc(C(N)=O)c2N)cc1OC` (stereo not shown), the “hERG current change (%, negative = inhibition) at 10uM” value is listed as 14.5%.

Consider `Cc1cc(C)nc(NS(=O)(=O)c2ccc(NC(=O)C3CC(=O)N(c4ccccc4)C3)cc2)n1` (stereo not shown), for which the “hERG current change (%, negative = inhibition) at 10uM” value is reported as -3.24%.

Source of the values: publication PMC4336329 (PLoS ONE, 2015).
